Measurements as given in PubChem BioAssay (Tox21).
Inconclusive results are not listed. Calls come from the whole dose curve; as a rule, active = well fitted inhibition curve with a large enough effect in the repeat runs; inconclusive = weak or mixed curves; inactive = no such curve, though single readings can be large or run the other way. Where a structure was tested more than once in an assay, its records may differ in their call. Some entries of the source have several records that differ or are many. They are shown here; other results are not. There may be further records. Results that share an entry are repeats (runs, samples, wells, individuals or studies). What stands in brackets tells the records apart. Letters hold for one entry only.

Test: qHTS assay to identify small molecule antagonists of the thyroid receptor (TR) signaling pathway (AID 743065); note: nearly all actives have a fitted effect of over 55% in size
In short: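 GH3.TRE-Luc rat pituitary cells carrying two TR response elements driving luciferase were plated for 4 h, given compound plus 1 nM T3 (final), and incubated 23.5 h at 37 C. ONE-Glo luminescence measured reporter inhibition; CellTiter-Fluor fluorescence tracked cytotoxicity.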
Potency is the fitted concentration of half-maximal effect.

Question: For `CCN(CC)C(=O)[C@@H]1C=C2c3cccc4[nH]cc(c34)C[C@H]2N(C)C1`, which Potency is on record?
Answer: active: 160 µM [sample A] and inactive [sample B]
